Experimental findings from paper PMC10991417 are described below.

The chains behind the UniProt entries cited, without tags or fusion partners. Where a name states a change or a piece, a line headed by the entry shows the natural chain unless it says otherwise.
UniProt A8DY81: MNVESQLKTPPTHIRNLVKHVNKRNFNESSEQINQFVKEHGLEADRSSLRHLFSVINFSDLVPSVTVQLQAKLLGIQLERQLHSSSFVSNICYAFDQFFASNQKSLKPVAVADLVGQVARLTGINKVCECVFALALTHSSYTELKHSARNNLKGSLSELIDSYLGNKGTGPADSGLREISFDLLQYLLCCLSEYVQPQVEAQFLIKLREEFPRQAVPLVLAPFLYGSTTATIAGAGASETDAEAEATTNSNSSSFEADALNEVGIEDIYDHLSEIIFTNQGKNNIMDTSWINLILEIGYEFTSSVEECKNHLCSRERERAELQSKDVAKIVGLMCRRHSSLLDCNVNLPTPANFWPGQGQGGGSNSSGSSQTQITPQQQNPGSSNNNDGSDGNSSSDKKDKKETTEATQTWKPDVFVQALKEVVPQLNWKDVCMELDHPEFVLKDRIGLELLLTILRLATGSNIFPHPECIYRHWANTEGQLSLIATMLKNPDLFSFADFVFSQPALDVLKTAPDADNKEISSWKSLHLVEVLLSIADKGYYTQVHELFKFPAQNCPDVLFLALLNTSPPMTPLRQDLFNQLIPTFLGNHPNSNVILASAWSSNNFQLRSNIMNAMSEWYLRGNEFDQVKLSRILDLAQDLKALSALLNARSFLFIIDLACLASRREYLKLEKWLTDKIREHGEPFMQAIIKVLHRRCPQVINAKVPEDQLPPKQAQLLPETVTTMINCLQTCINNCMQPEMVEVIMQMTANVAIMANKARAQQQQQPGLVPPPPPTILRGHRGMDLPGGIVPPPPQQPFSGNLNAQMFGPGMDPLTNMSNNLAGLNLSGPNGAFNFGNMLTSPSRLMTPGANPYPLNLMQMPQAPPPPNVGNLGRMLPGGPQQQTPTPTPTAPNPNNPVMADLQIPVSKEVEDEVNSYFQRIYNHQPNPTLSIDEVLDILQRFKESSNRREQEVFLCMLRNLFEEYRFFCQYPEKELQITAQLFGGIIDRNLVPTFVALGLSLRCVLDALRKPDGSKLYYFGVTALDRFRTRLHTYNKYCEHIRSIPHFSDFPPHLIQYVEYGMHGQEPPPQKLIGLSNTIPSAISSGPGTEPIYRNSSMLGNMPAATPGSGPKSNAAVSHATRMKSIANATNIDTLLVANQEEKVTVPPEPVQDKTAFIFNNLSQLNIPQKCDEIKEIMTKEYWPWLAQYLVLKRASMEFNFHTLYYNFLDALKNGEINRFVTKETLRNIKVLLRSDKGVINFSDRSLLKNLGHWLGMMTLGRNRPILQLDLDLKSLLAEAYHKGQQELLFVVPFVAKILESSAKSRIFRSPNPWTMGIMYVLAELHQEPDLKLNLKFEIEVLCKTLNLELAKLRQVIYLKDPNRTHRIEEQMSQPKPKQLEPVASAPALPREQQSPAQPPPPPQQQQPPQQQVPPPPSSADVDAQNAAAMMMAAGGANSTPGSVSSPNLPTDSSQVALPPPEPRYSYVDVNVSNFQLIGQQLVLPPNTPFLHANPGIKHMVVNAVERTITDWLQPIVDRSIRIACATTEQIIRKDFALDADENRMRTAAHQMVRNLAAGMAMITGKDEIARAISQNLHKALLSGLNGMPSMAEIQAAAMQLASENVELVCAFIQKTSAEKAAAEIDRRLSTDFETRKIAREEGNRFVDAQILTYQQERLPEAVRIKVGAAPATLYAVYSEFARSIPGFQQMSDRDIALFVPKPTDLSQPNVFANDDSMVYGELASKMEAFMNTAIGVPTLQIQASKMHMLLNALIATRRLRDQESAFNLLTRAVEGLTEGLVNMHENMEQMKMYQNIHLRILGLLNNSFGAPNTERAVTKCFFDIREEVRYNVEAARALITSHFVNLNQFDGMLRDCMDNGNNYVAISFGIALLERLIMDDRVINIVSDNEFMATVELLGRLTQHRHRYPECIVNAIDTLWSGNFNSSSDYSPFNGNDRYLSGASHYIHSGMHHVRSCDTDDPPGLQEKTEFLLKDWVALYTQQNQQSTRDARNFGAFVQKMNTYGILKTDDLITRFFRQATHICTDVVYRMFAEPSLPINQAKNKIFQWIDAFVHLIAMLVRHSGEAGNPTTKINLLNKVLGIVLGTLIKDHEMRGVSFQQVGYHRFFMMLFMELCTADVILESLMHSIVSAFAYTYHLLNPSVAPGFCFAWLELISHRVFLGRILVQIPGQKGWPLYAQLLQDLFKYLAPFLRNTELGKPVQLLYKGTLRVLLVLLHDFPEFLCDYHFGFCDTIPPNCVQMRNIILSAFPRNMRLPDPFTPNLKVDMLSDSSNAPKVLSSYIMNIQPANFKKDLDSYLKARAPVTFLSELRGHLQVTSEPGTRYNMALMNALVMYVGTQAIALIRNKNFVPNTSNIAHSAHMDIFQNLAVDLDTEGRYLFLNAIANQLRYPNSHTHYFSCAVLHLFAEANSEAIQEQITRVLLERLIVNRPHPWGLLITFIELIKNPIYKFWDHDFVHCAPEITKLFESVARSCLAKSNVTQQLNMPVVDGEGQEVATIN
UniProt Q7K126: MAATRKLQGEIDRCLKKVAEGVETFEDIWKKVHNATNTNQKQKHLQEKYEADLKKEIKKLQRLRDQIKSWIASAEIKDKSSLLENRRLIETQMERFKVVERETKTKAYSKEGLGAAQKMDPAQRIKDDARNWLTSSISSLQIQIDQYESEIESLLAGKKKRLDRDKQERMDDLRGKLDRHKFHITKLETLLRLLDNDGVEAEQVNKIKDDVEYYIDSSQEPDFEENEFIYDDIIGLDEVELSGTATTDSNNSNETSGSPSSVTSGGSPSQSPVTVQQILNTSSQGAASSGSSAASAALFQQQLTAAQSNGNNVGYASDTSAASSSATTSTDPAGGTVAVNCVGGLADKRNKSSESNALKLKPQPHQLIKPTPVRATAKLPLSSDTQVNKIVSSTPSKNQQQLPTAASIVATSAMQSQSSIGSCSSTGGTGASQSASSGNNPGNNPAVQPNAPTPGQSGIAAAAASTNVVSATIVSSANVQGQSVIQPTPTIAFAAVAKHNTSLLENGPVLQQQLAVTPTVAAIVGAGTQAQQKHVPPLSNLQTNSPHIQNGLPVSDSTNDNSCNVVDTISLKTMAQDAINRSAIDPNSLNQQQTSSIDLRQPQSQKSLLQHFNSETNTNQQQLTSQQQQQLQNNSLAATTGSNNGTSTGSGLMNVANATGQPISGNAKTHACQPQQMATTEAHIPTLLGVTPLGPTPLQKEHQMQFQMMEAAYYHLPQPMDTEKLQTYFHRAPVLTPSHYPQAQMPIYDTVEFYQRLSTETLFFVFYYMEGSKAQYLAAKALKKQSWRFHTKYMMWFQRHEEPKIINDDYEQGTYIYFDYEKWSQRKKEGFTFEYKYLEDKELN
UniProt Q7JVP2: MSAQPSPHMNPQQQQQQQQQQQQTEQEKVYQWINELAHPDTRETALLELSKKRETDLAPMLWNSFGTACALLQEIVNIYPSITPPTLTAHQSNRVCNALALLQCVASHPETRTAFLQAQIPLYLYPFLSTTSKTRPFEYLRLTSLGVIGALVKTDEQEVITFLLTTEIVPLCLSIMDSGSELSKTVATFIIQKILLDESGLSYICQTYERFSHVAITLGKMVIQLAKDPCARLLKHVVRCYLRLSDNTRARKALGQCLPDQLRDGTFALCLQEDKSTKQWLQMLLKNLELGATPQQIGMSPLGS

Test [1] has as its target NOT1 (Drosophila CCR4-NOT complex subunit) (Drosophila) (UniProt A8DY81). The test can be described thus: ReLo relocalization assay (live-cell confocal fluorescence microscopy); pairwise; one partner anchored to the plasma membrane by the PH domain of rat PLCδ1 and fused to mCherry, the other fused to EGFP/mEGFP; S2R+ cells cotransfected with two plasmids, imaged after 48 h at 25 °C.

For test [2], the target named is NOT3, split-ubiquitin membrane yeast two-hybrid (MYTH) fusion (Drosophila) (UniProt Q7K126). The test can be described thus: two-hybrid; split-ubiquitin-based membrane yeast two-hybrid (MYTH); pPR3-N and pDHB1 vectors cotransformed into NMY51 yeast; spotting on SDC lacking leucine, tryptophan, adenine and histidine, six days at 30 °C.
The target of test [3] is CAF40 (Drosophila CCR4-NOT complex subunit) (Drosophila) (UniProt Q7JVP2). The test is described as follows: ReLo relocalization assay (live-cell confocal fluorescence microscopy); pairwise; membrane anchor (PH or OST4) and which partner was anchored are not given; S2R+ cells cotransfected with two plasmids, imaged after 48 h at 25 °C.
Test [4] addresses CAF40 V186E (CAF40 MUT) (Drosophila) (UniProt Q7JVP2). The test is described as above.
For test [5], the target named is T1, NOT2 (Drosophila CCR4-NOT complex subunit) (Drosophila) (UniProt Q94547).
T1 sequence: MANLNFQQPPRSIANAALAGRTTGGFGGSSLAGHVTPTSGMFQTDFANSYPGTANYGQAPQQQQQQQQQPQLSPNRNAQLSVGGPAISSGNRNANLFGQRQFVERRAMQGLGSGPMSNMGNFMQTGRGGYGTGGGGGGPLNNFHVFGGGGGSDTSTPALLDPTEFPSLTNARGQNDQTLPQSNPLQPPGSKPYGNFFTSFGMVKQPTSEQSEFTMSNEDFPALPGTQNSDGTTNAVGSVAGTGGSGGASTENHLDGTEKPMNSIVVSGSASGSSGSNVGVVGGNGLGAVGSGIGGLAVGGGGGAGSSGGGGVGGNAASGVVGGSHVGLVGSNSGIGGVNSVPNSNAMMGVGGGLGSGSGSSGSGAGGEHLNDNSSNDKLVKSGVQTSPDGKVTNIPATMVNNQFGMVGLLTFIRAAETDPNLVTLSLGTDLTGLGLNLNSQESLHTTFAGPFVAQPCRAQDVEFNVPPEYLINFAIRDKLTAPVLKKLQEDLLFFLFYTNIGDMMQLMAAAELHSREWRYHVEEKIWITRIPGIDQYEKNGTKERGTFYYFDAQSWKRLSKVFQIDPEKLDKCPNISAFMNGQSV
The description is as above.

In test [6] the target is NOT3 (Drosophila CCR4-NOT complex subunit) (Drosophila) (UniProt Q7K126). Described as above.
Test [7] addresses NOT1 (Drosophila CCR4-NOT complex subunit) (Drosophila) (UniProt A8DY81). The test is described as above.

Results are given in words; binding and its absence hold for the method and conditions named. Some results given as binding are weak or reduced against the parent protein; the word gives no strength. For part of these data: Tags and fused reporters may be left off the sequences shown.

Turning to “NOT3 (Drosophila CCR4-NOT complex subunit) (from UniProt Q7K126 1-844)”, the binding result in test [1] was “binds”.
For “CAF40 (Drosophila CCR4-NOT complex subunit) (from UniProt Q7JVP2 1-304)”, the binding result in test [1] is given as “binds”.

B1: NOT2, split-ubiquitin membrane yeast two-hybrid (MYTH) fusion (protein, UniProt Q94547 1-585)
chain: MANLNFQQPPRSIANAALAGRTTGGFGGSSLAGHVTPTSGMFQTDFANSYPGTANYGQAPQQQQQQQQQPQLSPNRNAQLSVGGPAISSGNRNANLFGQRQFVERRAMQGLGSGPMSNMGNFMQTGRGGYGTGGGGGGPLNNFHVFGGGGGSDTSTPALLDPTEFPSLTNARGQNDQTLPQSNPLQPPGSKPYGNFFTSFGMVKQPTSEQSEFTMSNEDFPALPGTQNSDGTTNAVGSVAGTGGSGGASTENHLDGTEKPMNSIVVSGSASGSSGSNVGVVGGNGLGAVGSGIGGLAVGGGGGAGSSGGGGVGGNAASGVVGGSHVGLVGSNSGIGGVNSVPNSNAMMGVGGGLGSGSGSSGSGAGGEHLNDNSSNDKLVKSGVQTSPDGKVTNIPATMVNNQFGMVGLLTFIRAAETDPNLVTLSLGTDLTGLGLNLNSQESLHTTFAGPFVAQPCRAQDVEFNVPPEYLINFAIRDKLTAPVLKKLQEDLLFFLFYTNIGDMMQLMAAAELHSREWRYHVEEKIWITRIPGIDQYEKNGTKERGTFYYFDAQSWKRLSKVFQIDPEKLDKCPNISAFMNGQSV
On to B1, for which, in test [2], the binding result is listed as “binds”.

B2: Nanos Δ140–160 (protein, UniProt P25724)
chain: MFRSNLEGSGAAAVGVANPPSLAQSGKIFQLQDNFSAFHARGGLNILGLQDMYLDTSGANSSATLSPPITPVTPDPSTSAQSTHFPFLADSAATANSLLMQRQYHYHLLLQQQQQLAMAQHQLALAASAAAASASHQQTAGSMQDVMQEFATNGYASDDLGRMSYGSAPPQVQMPPQQQHQQQQGLHLPLGRNPAQLQTNGGNLMPIPLATHWLNNYREHLNNVWRNMSYIPAAPNTMGLQAQTAATVSTNLGVGMGLGLPVQGEQLRGASNSSNNNNNNNKVYKRYNSKAKEISRHCVFCENNNEPEAVINSHSVRDNFNRVLCPKLRTYVCPICGASGDSAHTIKYCPKKPIITMEDAIKAESFRLAKSSYYKQQMKV
In the case of B2, the binding result in test [3] is “no binding”.

B3: Bag-of-marbles (Bam) (protein, UniProt P22745 1-442)
chain: MLNARDVCPEGNDDQQLDHNFKQMEEHLALMVEGNENEDPRKATCEYEDTNEDGATCTSGVLSEIQENFGRLRLCDVTAPLLEFHGLDCLQQIQKRSRHFAFDGSPAKKSRSGGVLVTGPKQKQLQKENVWNRKSKGSASADNIEKLPITIEKLHMIGLHGDCLEHNAVLRLMNLFRSLHDHLTADLGFSRQNSMPSDYLFDMPVKSTMPKSLNVRYQLQVLCTKVERFLVQQRRTLEANRHFDFEKYDECDKLLKGFASYLDNFKLLLKPKMRNRNGNSGSNADKFHTQRMERLLIGLRDWIKAAHLSVHVFNWEMDLEHRYSGAMTESHKSLNERAILLSGAELRAAEARGISAEDLFIAQRYKLGGPIYCVLEQHEFLSALIANPETYFPPSVVAICGPQKLGAVSMEQPSASEEEFEETEEVPSSPPRHTGRVPRFRS
With B3, the binding result in test [3] was “binds”; in test [4], “no binding”; in test [5], “no binding”; in test [6], “no binding”; in test [7], “no binding”.

B4: Bam M24E (Bam MUT) (protein, UniProt P22745 1-442)
chain: MLNARDVCPEGNDDQQLDHNFKQEEEHLALMVEGNENEDPRKATCEYEDTNEDGATCTSGVLSEIQENFGRLRLCDVTAPLLEFHGLDCLQQIQKRSRHFAFDGSPAKKSRSGGVLVTGPKQKQLQKENVWNRKSKGSASADNIEKLPITIEKLHMIGLHGDCLEHNAVLRLMNLFRSLHDHLTADLGFSRQNSMPSDYLFDMPVKSTMPKSLNVRYQLQVLCTKVERFLVQQRRTLEANRHFDFEKYDECDKLLKGFASYLDNFKLLLKPKMRNRNGNSGSNADKFHTQRMERLLIGLRDWIKAAHLSVHVFNWEMDLEHRYSGAMTESHKSLNERAILLSGAELRAAEARGISAEDLFIAQRYKLGGPIYCVLEQHEFLSALIANPETYFPPSVVAICGPQKLGAVSMEQPSASEEEFEETEEVPSSPPRHTGRVPRFRS
For B4, the binding result in test [3] was “no binding”.

B5: Nanos (Drosophila) (protein, UniProt P25724 1-401)
chain: MFRSNLEGSGAAAVGVANPPSLAQSGKIFQLQDNFSAFHARGGLNILGLQDMYLDTSGANSSATLSPPITPVTPDPSTSAQSTHFPFLADSAATANSLLMQRQYHYHLLLQQQQQLAMAQHQLALAASAAAASASHQQTDEIARSLKIFAQVTTGAAENAAGSMQDVMQEFATNGYASDDLGRMSYGSAPPQVQMPPQQQHQQQQGLHLPLGRNPAQLQTNGGNLMPIPLATHWLNNYREHLNNVWRNMSYIPAAPNTMGLQAQTAATVSTNLGVGMGLGLPVQGEQLRGASNSSNNNNNNNKVYKRYNSKAKEISRHCVFCENNNEPEAVINSHSVRDNFNRVLCPKLRTYVCPICGASGDSAHTIKYCPKKPIITMEDAIKAESFRLAKSSYYKQQMKV
On to B5, for which the binding entry in test [3] is “binds”; in test [4], “no binding”; in test [5], “no binding”; in test [6] it was “no binding”; in test [7] it was “binds”.
